Experimental data: article PMC12136788
Where a chain is given by its changes, count along the chain named. This is one part of the list.

T1: UNK ZnF1-3 (human, UniProt Q9C0B0 31-174)
T1 sequence: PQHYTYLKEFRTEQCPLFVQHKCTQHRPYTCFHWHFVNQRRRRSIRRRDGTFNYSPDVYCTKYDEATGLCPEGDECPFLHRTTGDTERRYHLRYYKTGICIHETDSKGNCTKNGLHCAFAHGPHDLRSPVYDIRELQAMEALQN

B1: chr2:179515052:179515053:+_ENSMUSG00000000305_ENSMUST00000000314|mus_hu|mus_mus_mus_hu_False|68_68 (ssRNA)
RNA: GGGAGUUCUACAGUCCGACGAUCGCUGUCCCAUGCAGUCACCGUGAACGCCACCUGCUCGGAGGGGAUCUUCAACUCCCGGGUGGCGAAGACUGUCCCAUCUGCCCCAACUUUGAAGUCCAUGCUGUUGGUCUCAUAUUGUGUCAACAGAGGAUUGAGCAUCA
B2: chr10:89103549:89103550:-_ENSMUSG00000069539_ENSMUST00000105294|mus_mus|FALSE|FALSE (ssRNA)
RNA: GGGAGUUCUACAGUCCGACGAUCUAUCGGUUGGUCUCUGUUGAGGCUGCUUCACGCUAGCAGGAGGAAUAGUCAAAGGGCUAAAGUUUGACAUAGUGGGAGGUGCUCCCAGACUCAUGGUGGUCACGCCAGCUGUGCCCGUCCCAACAGAGGAUUGAGCAUCA
B3: chr4:25749455:25749456:-_ENSG00000091490_ENST00000264868|hu_hu|FALSE|FALSE (ssRNA)
RNA: GGGAGUUCUACAGUCCGACGAUCGGAAGCACUAGGACCCUAGAAAAAUUCAAGGAGAAAAAUGUAAACCAAUUUACAAAGCUAUUGCCCUCCCUGCAUUUCCAGGCACAAACAAUUUAUUUCAAGGUGCCUUAUAACUGCUAGCAACAGAGGAUUGAGCAUCA
B4: chr5:128440902:128440903:+_ENSG00000066583_ENST00000173527|hu_mus|hu_hu_hu_mus_True|58_108 (ssRNA)
RNA: GGGAGUUCUACAGUCCGACGAUCUUGAACCGUGCUCCCAAGUCCUUUGGGGUAUUGUUCCGUUAUGAUAACUGGAAUUCCUAAAAUCCGAGCUCCUUGCAACAGUCUCUGUCCCACACUAAUGAUGUCCCCAAAGUAUUUGAUCAACAGAGGAUUGAGCAUCA
B5: 35545365_35547799_1079_CDS_ENSG00000101347_ENST00000262878|human|control|control (ssRNA)
RNA: GGGAGUUCUACAGUCCGACGAUCCCAUUUGUCCACAUCAAUGCCAUUUCUUUUAUUAGAUACUAUCUCAUAAAGGAAGCUUUUGUUUUCAGGACGCCCUUUAUAUGGCCACAAUGAAUCUUCGACAGGUGAUUCAAGUGGUCCCAACAGAGGAUUGAGCAUCA
B6: chr3:176767854:176767855:-_ENSG00000177565_ENST00000430069|hu_hu|hu_hu_hu_mus_False|98_98 (ssRNA)
RNA: GGGAGUUCUACAGUCCGACGAUCGACAUCCUUGUUACUUGGAACAUCCUGCCCUCCUUCCCGUAUGCAGUGUCUAAGCACGAGCUGCGUAGGGCCACUCGUGCUGUUCUCACUGAGGUUCCAGAUUCUUGCCGUGGAGUCUCCCAACAGAGGAUUGAGCAUCA
B7: 44956482_44957145_737_3pUTR_ENSG00000175274_ENST00000395648|human|control|control (ssRNA)
RNA: GGGAGUUCUACAGUCCGACGAUCGAUGACGACAAAAAGGAGGCGGCUGACCAGGAGCAGCAGGAUCCCCAGGGACAUGAGGCCCGUCUCAGCUAGCGUGGCAGUGACCACCAAGAACUGGACCCCGAAAUAGCAAGCUUCGGUCAACAGAGGAUUGAGCAUCA
B8: chr5:21408736:21408737:-_ENSMUSG00000042453_ENSMUST00000161356|mus_hu|mus_mus_mus_hu_False|98_98 (ssRNA)
RNA: GGGAGUUCUACAGUCCGACGAUCGUUGACAGAGUUGUAAAUGGUGGCUUCAUGGAACUGGAAAGGGGAGCAGCCAAUGCUGUUAGAAGAGGAAGGAAGGCACUGGGUCUGUACGAGCUGCCAGGAAUCCGAUCUUGCAUCCUUCAACAGAGGAUUGAGCAUCA
B9: chr9:91931296:91931297:+_ENSG00000123975_ENST00000314355|hu_hu|hu_hu_hu_mus_True|48_48 (ssRNA)
RNA: GGGAGUUCUACAGUCCGACGAUCAGAUUAGAUGAUCCCAGCUGCACUUCAUUUUUGUUGUUCUUUUGGAAGAGGUCGUCUAAAGAGAAGAAUAUGUGGUUCUGGCUCAUGAAUCAUGUAAUGAACCCAUCCUAGACUCUGUUGCAACAGAGGAUUGAGCAUCA
B10: chr5:5249095:5249096:-_ENSMUSG00000028926_ENSMUST00000030763|mus_hu|FALSE|FALSE (ssRNA)
RNA: GGGAGUUCUACAGUCCGACGAUCCUUAAAGUUAAUGCAAGCAUUGUUCUCAGAAUGCACCCUCUUUACUUGAUUAGCUGGUUUCUCAAAUGGGUCAAAAGUGCUCUGUGUCCUCUGAACUCUGACUUUUUUAUCCUCAGGAAUCAACAGAGGAUUGAGCAUCA
B11: chr2:60072956:60072957:+_ENSMUSG00000026977_ENSMUST00000102748|mus_mus|FALSE|FALSE (ssRNA)
RNA: GGGAGUUCUACAGUCCGACGAUCUGCACUUUUAGCUUUAUCAUUUUUCCCAUCAGUUGAAUUCCAACCAGAAGGAAUAAUAUCUACAGUAAUCAUGACAUUGUCAGCCAGAUUACUGCCGAGUGCUGGUGGGACUGCAAACCGCAACAGAGGAUUGAGCAUCA
B12: chr9:14812383:14812384:-_ENSMUSG00000031934_ENSMUST00000164273|mus_mus|mus_mus_mus_hu_True|1_78 (ssRNA)
RNA: GGGAGUUCUACAGUCCGACGAUCAUAGCCCAGGUAGAUACACGCUAACAGUAUAAUCACAAAUGUCAGCAGGCGGCAGCUAAUGUACUUGAUGAUUAAAUUAUUAGAAUUUUUCUUUGUCUUCAAGUACUGCUCCACGAUUGGCAACAGAGGAUUGAGCAUCA
B13: chr5:128440902:128440903:+_ENSG00000066583_ENST00000173527|hu_mus|hu_hu_hu_mus_True|48_108 (ssRNA)
RNA: B4 RNA with U78C, A84G, A90G, U93C
B14: 45009487_45009607_501_3pUTR_ENSMUSG00000036097_ENSMUST00000096053|mouse|control|control (ssRNA)
RNA: GGGAGUUCUACAGUCCGACGAUCGUGGUGCUCCUUCCCACCUUUCAUGAAAGCCUCUAAAAUAGGACUUUCUUCUGAUGACAUCCUCUUAGGUUUAAGUUUUUUUGGUGAAGAUAAUUUCCUUUCAAAUUGCUCUGUCCCAGUCAACAGAGGAUUGAGCAUCA
B15: 222886003_222886123_169_5pUTR_ENSG00000162819_ENST00000340934|human|control|control (ssRNA)
RNA: GGGAGUUCUACAGUCCGACGAUCAUGAUAGCUACCGAGGCGGUAGUGCGCGCAGCUCAGGGGCGGGUAUUGCCGCGGCGUUGCAGUCCCCUCAAAACGCUUCGUUCAUCAUCCCUUUCUAACUUCUCCCUCGGCCUUCCUUUUCAACAGAGGAUUGAGCAUCA
B16: 116287005_116291584_275_CDS_ENSMUSG00000028693_ENSMUST00000030457|mouse|control|control (ssRNA)
RNA: GGGAGUUCUACAGUCCGACGAUCCUUCUUACCUAAAAGACUAGCUGCUUCCUGGAAUGCAUUAACAGCUGCUGGAAUGUCACCCAUCACCAGAUGUUUCUGUCCUAAUCCCAGUAGUUUCUUAGCUUCACUAUCCACAUCCAGCAACAGAGGAUUGAGCAUCA
B17: 66463108_66463409_5036_CDS_ENSMUSG00000015222_ENSMUST00000114013|mouse|control|control (ssRNA)
RNA: GGGAGUUCUACAGUCCGACGAUCAGUUGGUCUAGUGUAUUUGAUAGCAGGUUUUAAAAUGAGUUUCCUGGAAGGAGAGUGGGCCUGAACUUCUGAUUUUUUAGCAAGUUCAGCCUUCUUAUAAACUGCUUUUUUCCUUCUCACCAACAGAGGAUUGAGCAUCA
B18: chr2:74399864:74399865:-_ENSG00000114978_ENST00000396049|hu_hu|FALSE|FALSE (ssRNA)
RNA: GGGAGUUCUACAGUCCGACGAUCAGAGUUCAUACUGAUGAGAUCCUUCAGGGAUAUUCUUCUUUGGUUUGAAUGUUUUAGAAGAGCGGCUGCUGAAGAGGAAGCUCAUCUUCGGUCCUCAGAGGGGAGGCGAGGGGCCCCUGGCAACAGAGGAUUGAGCAUCA
B19: chr19:10649910:10649911:-_ENSMUSG00000024666_ENSMUST00000025568|mus_hu|FALSE|FALSE (ssRNA)
RNA: GGGAGUUCUACAGUCCGACGAUCGCAUCUUCCUUCUGUUUUCUCGGGCCCCCAAGGGCACAUCCCACAGUUCCCAGAAAACCGCUCCUGGCUGUCUCCCUACCACUGAGGGAGAGGCUUCUAGUUCCUUUGAAUGAGAGCUGUCAACAGAGGAUUGAGCAUCA
B20: chr3:148802587:148802588:-_ENSG00000071794_ENST00000310053|hu_mus|hu_hu_hu_mus_False|8_108 (ssRNA)
RNA: GGGAGUUCUACAGUCCGACGAUCUCCAACCACAUGACCUCUCAUAGUUCCAAAUAAAACCAAAUCUUGCUCUUCAUCACUCGUUAGGAAGUCAUCUGGAGGAAUAAUGUCUUGGAAUUCAAAAUGUGGAAAGAAAGUUGAGUACAACAGAGGAUUGAGCAUCA
B21: 7556756_7557214_644_CDS_ENSG00000129244_ENST00000250111|human|control|control (ssRNA)
RNA: GGGAGUUCUACAGUCCGACGAUCGUCACUGACAUUGACAAUGACAUCAAGGUUCUCAGUCUUGGGGCGAAUCAUCAAGCCCGGUGUGGCCAGUCGGUCCUGGUACUUGGGGGUAUGGUCGGAGACAGUCUGCAGCAUCACCCACAACAGAGGAUUGAGCAUCA
B22: 123327785_123327905_1134_CDS_ENSMUSG00000035202_ENSMUST00000038863|mouse|control|control (ssRNA)
RNA: GGGAGUUCUACAGUCCGACGAUCAGGGACUAGUGCCUUCUGCAAGGCUUUCUUCACAGAGCUGCAGCCAUGUAGAAGCCCGUGGCUAGGAGAGAUGGCCACGUGGGAGAUGCCAUAGAUGGCCUCAGGGGUGGCUGUGUAUGCCAACAGAGGAUUGAGCAUCA

Each binder was assayed against T1, UNK ZnF1-3 (assay: nsRBNS (natural sequence RNA bind-n-seq); RBNS binding buffer (assumed for nsRBNS): 25 mM Tris pH 7.5, 150 mM KCl, 3 mM MgCl2, 0.01% Triton X-100, 500 ug/ml BSA, 20 U/ml SUPERase-In, 4 C; UNK is unkempt and MSI1 is Musashi-1; names of the RNAs are library labels; protein concentration not given here; high values mean tight binding).
For B1, the binding signal was 0.721 enrichment R. In the case of B2, the binding signal is reported as 0.8 enrichment R. Work on B3 yielded a binding signal of 1.44 enrichment R. B4 was tested, and the binding signal was 0.766 enrichment R. For B5, the binding signal was 0.604 enrichment R. B6 was tested, and the binding signal was 0.583 enrichment R. B7 was tested, and the binding signal was 1.74 enrichment R. Work on B8 yielded a binding signal of 1.82 enrichment R. In the case of B9, the binding signal is reported as 1.07 enrichment R. With B10 the binding signal was 0.832 enrichment R. Work on B11 yielded a binding signal of 0.392 enrichment R. B12 was tested, and the binding signal was 1.44 enrichment R. With B13 the binding signal was 0.679 enrichment R. B14 was tested, and the binding signal was 0.587 enrichment R. With B15 the binding signal was 0.775 enrichment R. B16 showed a binding signal of 0.631 enrichment R. Work on B17 yielded a binding signal of 0.974 enrichment R. B18 showed a binding signal of 0.926 enrichment R. For B19, the binding signal was 0.941 enrichment R. With B20 the binding signal was 1.33 enrichment R. With B21 the binding signal was 1.21 enrichment R. B22 showed a binding signal of 0.877 enrichment R.
